According to PubChem BioAssay AID1345083 (National Center for Advancing Translational Sciences (NCATS), 2018):
The campaign covered roughly 94,000 compounds. About 6,200 (6.6%) were called active. Inconclusive means that the source gave no clear call. Such entries were picked first, then a sample of the others. The call rests on the fitted dose curve; in most records, active means well fitted inhibition curve with a large enough effect; inconclusive means small, poorly fitted or top-dose-only effect; inactive means flat fitted curve, though single readings scatter. A potency beside an inconclusive call is a rough fit, not a confirmed value.

Assay: Cytotoxic Profiling in HEK 293 Cell Line of Diverse Libraries Using Quantitative High-Throughput Screening; further: nearly all actives have a fitted effect of over 60% in size
Settings: HEK 293 viability, ATP luminescence (CellTiter-Glo), 48-72 h; activity change, negative = cytotoxicity: at 115 µM (top of the series) unless noted; series mostly up to 115 µM
How it was run: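 HEK 293 seeded at 250 cells/well receive compound via pintool. After 48 or 72 hr at 37 degree Celsius, 5% CO2 and 95% humidity, CellTiter-Glo is dispensed and luminescence read following 10 min at room temperature.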
On the % scale 0 is the no-effect control and ±100 the full control effect; potency means the concentration at half of the fitted maximal effect; tags describe the fitted curve by direction and shape.

Question: Which Potency does the source give for `CC(=O)Nc1ccc(C2(C(=O)NCc3ccc(Cl)cc3)CCC2)cc1` here?
Answer: inconclusive: 22.4 µM [inhibitor, full curve, poor fit]

Question: Which Potency does the source give for `Cc1cc(C)cc(C(=O)N2CCCN(c3cc(-c4ccc(Cl)cc4)[nH]n3)CC2)c1` here?
Answer: active: 44.7 µM

Question: With `O=C1c2c(nc(COc3cccc(Cl)c3)n2Cc2ccccc2)NCCN1CCOc1ccccc1` as the compound, how does the Potency read?
Answer: inconclusive: 22.4 µM [inhibitor, full curve, poor fit]

Question: For `Cc1nn(-c2ccccn2)c(C)c1[C@@H]1C=C[C@@H](NC(=O)CCCC(=O)O)C1`, which “activity change, negative = cytotoxicity” value is on record?
Answer: inactive: 4.01% [at 172 µM]

Question: Which “activity change, negative = cytotoxicity” value does the source give for `O=C(O)COc1ccc(-c2nccc3c2C(=O)N(Cc2ccccc2)CC(CNC(=O)c2ccc(F)cc2)O3)cc1` (stereo unspecified) here?
Answer: inactive: 2.14%

Question: With `O=C([C@H]1CCCN1C(=O)Nc1ccc(Cl)cc1)N1CCCC(c2nc3ccncc3[nH]2)C1` (stereo partly specified) as the compound, how does the “activity change, negative = cytotoxicity” value read?
Answer: inactive: -19.6%

Question: For `COC1CCN(C(C)=O)CC(=O)N(C)c2ccccc21` (stereo unspecified), which “activity change, negative = cytotoxicity” value is on record?
Answer: inactive: 0.463%

Question: For `c1ccc(-c2ccc3ncc(Nc4ccncc4)n3n2)cc1`, which Potency is on record?
Answer: inconclusive: 126 µM [inhibitor, partial curve, poor fit]

Question: With `CSc1ccc(CN2CCN(Cc3ccccc3F)C(CCO)C2)cc1` (stereo unspecified) as the compound, how does the Potency read?
Answer: inconclusive: 56.2 µM [inhibitor, partial curve, poor fit]

Question: Which Potency does the source give for `COc1cc(C)c2c(c1C)C[C@H](C(C)C(=O)N1CCN(c3ccc(F)cc3)CC1)CC2` (stereo partly specified) here?
Answer: inconclusive: 28.2 µM [inhibitor, full curve]

Question: For `C[S+](=O)([O-])Nc1cccc(Nc2ncc(-c3cccc(F)c3)c3c2OCC3)c1`, which Potency is on record?
Answer: inconclusive: 39.8 µM [inhibitor, partial curve, poor fit]

Question: Which Potency does the source give for `COc1cc(SC)ccc1C(=O)N[C@H]1C[C@@](O)(C(=O)N[C@@H](Cc2cccs2)C(N)=O)C[C@@H](O)[C@@H]1O` here?
Answer: inconclusive: 89.1 µM [inhibitor, single point]

Question: Which “activity change, negative = cytotoxicity” value does the source give for `COCCNC(=O)c1cc(-c2ccc(OC)cc2)nc2c1c(C1CCCN1)nn2C` (stereo unspecified) here?
Answer: inactive: -25.2%

Question: For `CC(C)CNC(=O)c1cn2cc(-c3cccnc3)sc2n1`, which Potency is on record?
Answer: inconclusive: 112 µM [inhibitor, partial curve, poor fit]

Question: With `CC(Oc1ccc(Cl)cc1)C(=O)NCc1nnc2ccc(-c3ccccc3)nn12` (stereo unspecified) as the compound, how does the Potency read?
Answer: inconclusive: 89.1 µM [inhibitor, single point]

Question: For `COCCNC(=O)c1ccc(OC)cc1OC1CCN(Cc2cccc3cccnc23)CC1`, which Potency is on record?
Answer: inconclusive: 89.1 µM [inhibitor, single point]

Question: Which “activity change, negative = cytotoxicity” value does the source give for `CCN(CCNC(=O)C1CCN(c2cn[nH]c(=O)c2)C1)Cc1ccccc1` (stereo unspecified) here?
Answer: inactive: 1.7%

Question: With `CS(=O)(=O)Nc1ccc(C2(C(=O)NCc3ccc(F)cc3)CCCCC2)cc1` as the compound, how does the “activity change, negative = cytotoxicity” value read?
Answer: inactive: -7.73%

Question: With `O=C(NCc1ccco1)[C@@H]1Cc2nc[nH]c2CN1Cc1ccc(C(F)(F)F)cc1` as the compound, how does the Potency read?
Answer: inconclusive: 100 µM [inhibitor, partial curve, poor fit]

Question: Which Potency does the source give for `COc1ccc(CC(=O)NC2CCCN(c3ccc4nnc(-c5ccccc5)n4n3)C2)cc1` (stereo unspecified) here?
Answer: inconclusive: 100 µM [inhibitor, single point]

Question: For `COCCN1CCN(C(=O)[C@@H]2Cc3cn(C)c4cccc(c34)[C@H](CC(C)C)N2)CC1`, which Potency is on record?
Answer: inconclusive: 126 µM [inhibitor, single point]

Question: For `O=C(NCCc1ccc(Cl)cc1)c1ccc2nnc(-c3cc(C(F)(F)F)cc(C(F)(F)F)c3)n2c1`, which Potency is on record?
Answer: active: 20 µM

Question: For `CC1=C[C@@H](CNC(=O)CC2(CC(=O)O)CCCC2)[C@H](C(C)C)C[C@H]1Cc1nc2ccncc2[nH]1`, which “outcome” value is on record?
Answer: inactive

Question: Which Potency does the source give for `Cc1ccccc1-c1cnc2n[nH]c(-c3ccccc3)c2n1` here?
Answer: active: 89.1 µM

Question: For `CC(C)n1cc(CN2CCC3(CC2)CC(C(=O)N2CCOCC2)N(C)C3)c2ccccc21` (stereo unspecified), which Potency is on record?
Answer: inconclusive: 89.1 µM [inhibitor, single point]

Question: With `CCN1c2cc(C(=O)N3CCN(c4ccc(C)cc4)CC3)ccc2C(=O)N2CCCCC21` (stereo unspecified) as the compound, how does the Potency read?
Answer: inconclusive: 10 µM [inhibitor, full curve, poor fit]

Question: For `Cc1ccc(NC(=O)N2CCCC(Cn3c(C)nc4cccnc43)C2)cc1F` (stereo unspecified), which Potency is on record?
Answer: inconclusive: 44.7 µM [inhibitor, partial curve, poor fit]

Question: Which “outcome” value does the source give for `O=[S+]1([O-])NCC2(CCN(CC3CCCCC3)CC2)Oc2ncccc21` here?
Answer: inactive

Question: Which Potency does the source give for `CNC(=O)c1cc(C2CC2)nc2onc(C3CCCN(C(=O)C4CCCC4)C3)c12` (stereo unspecified) here?
Answer: inconclusive: 56.2 µM [inhibitor, partial curve, poor fit]

Question: For `COc1cccc(-c2cn3c(n2)N(C(=O)Cc2cccs2)CCC3)c1`, which Potency is on record?
Answer: inconclusive: 50.1 µM [inhibitor, partial curve, poor fit]

Question: With `O=C(N[C@@H]1CN(C(=O)Nc2ccc(F)cc2)CCC[C@H]1O)c1ccc(O)cc1` as the compound, how does the activity change, negative = cytotoxicity read?
Answer: inconclusive: -32.7% [inhibitor] [at 172 µM]

Question: Which “activity change, negative = cytotoxicity” value does the source give for `CC(=O)NCCNC(=O)c1ccc(-c2ncc3cnc(-c4cccc(F)c4)cn23)cc1` here?
Answer: inactive: -31.3% [at 172 µM]

Question: Which Potency does the source give for `O=C(Nc1ccc2c(c1)CN(C(=O)c1cc(C3CC3)[nH]n1)CCO2)C1CC1` here?
Answer: inconclusive: 89.1 µM [inhibitor, single point]

Question: Which “outcome” value does the source give for `COC[C@@H]1CN(C(=O)c2cccc3[nH]ccc23)C[C@H]1c1nc(C)no1` here?
Answer: inactive

Question: With `COCCNC(=O)c1cc(Br)cn2ccnc12` as the compound, how does the Potency read?
Answer: inactive

Question: For `Cc1ccc(C(=O)N[C@H]2CO[C@H]3[C@@H]2OC[C@@H]3n2nnnc2Oc2ccc(-n3ccnc3)cc2)cc1`, which Potency is on record?
Answer: inconclusive: 63.1 µM [inhibitor, partial curve, poor fit]

Question: Which Potency does the source give for `O=C(NCc1ccc(F)c(F)c1)c1ccc2nnc(Cc3ccc(Cl)cc3)n2c1` here?
Answer: inconclusive: 50.1 µM [inhibitor, partial curve, poor fit]

Question: Which Potency does the source give for `CC1=C[C@@H](CN2CCN(c3ccccn3)CC2)[C@H](C(C)C)C[C@H]1Cc1nnc(-c2ccc(C)cc2)o1` here?
Answer: inconclusive: 50.1 µM [inhibitor, partial curve, poor fit]

Question: With `O=C(c1cccs1)N1CCCN(c2cc(-c3ccc(Cl)cc3)[nH]n2)CC1` as the compound, how does the Potency read?
Answer: active: 44.7 µM

Question: With `CCn1cc(S(=O)(=O)N2CCC(Cc3ncc(C)n3Cc3ccc(F)cc3)CC2)cn1` as the compound, how does the Potency read?
Answer: inconclusive: 20 µM [inhibitor, full curve]

Question: With `CC(C)S(=O)(=O)N1CCN(c2ccc3nnc(C4CC4)n3n2)CC1` as the compound, how does the “activity change, negative = cytotoxicity” value read?
Answer: inactive: -11%

Question: For `CCOC(=O)C1CCN(C(=O)c2cc(Cn3nc(C)cc3C)[nH]n2)CC1`, which Potency is on record?
Answer: inconclusive: 28.2 µM [inhibitor, full curve]

Question: Which Potency does the source give for `O=C(NCCCc1ccccc1)c1ccc2nnc(-c3ccc(C(F)(F)F)cc3)n2c1` here?
Answer: inconclusive: 50.1 µM [inhibitor, partial curve, poor fit]

Question: With `COCCCNC(=O)Cc1cccn1-c1ccc(F)cc1` as the compound, how does the “activity change, negative = cytotoxicity” value read?
Answer: inactive: 1.46%

Question: For `COc1ccc(-n2nc3n(c2=O)CCN(CCC(C)C)C3)cc1`, which Potency is on record?
Answer: inconclusive: 100 µM [inhibitor, partial curve, poor fit]

Question: With `CCNc1ncc(CN2CCN(c3cccc(C(F)(F)F)c3)CC2)cn1` as the compound, how does the Potency read?
Answer: inconclusive: 44.7 µM [inhibitor, partial curve]

Question: With `Cc1cc(Cl)ccc1S(=O)(=O)N(C)CC1CCOCC1` as the compound, how does the “activity change, negative = cytotoxicity” value read?
Answer: inactive: -4.18%

Question: With `CCn1ccc(C(=O)N2CCCCC2c2noc(COCCOC)n2)n1` (stereo unspecified) as the compound, how does the “activity change, negative = cytotoxicity” value read?
Answer: inactive: 0.759%

Question: Which “outcome” value does the source give for `Cc1cccc(CN2CCCOCCNC(=O)CC2)c1` here?
Answer: inactive

Question: For `CN(C)c1ccc(CN2CCNc3cnc(-c4ccccc4)cc3C2)cc1`, which Potency is on record?
Answer: active: 100 µM

Question: For `COc1ccccc1Oc1ncccc1CNC(=O)c1ccc(C)nc1`, which “activity change, negative = cytotoxicity” value is on record?
Answer: inactive: -8.49%

Question: Which Potency does the source give for `Cc1cc(C(=O)N2CCCC(CCc3c(F)cccc3F)C2)no1` (stereo unspecified) here?
Answer: inconclusive: 56.2 µM [inhibitor, partial curve, poor fit]

Question: For `OC1(CNCc2csc3ccc(Cl)cc23)CNCCOC1` (stereo unspecified), which Potency is on record?
Answer: inconclusive: 100 µM [inhibitor, single point]

Question: Which “activity change, negative = cytotoxicity” value does the source give for `Cc1cnc(C2CCN(S(C)(=O)=O)C2)n1Cc1ccc(F)cc1` (stereo unspecified) here?
Answer: inactive: 1.35%

Question: Which Potency does the source give for `COCCOc1ccc2c(n1)CCN(C(=O)Cc1ccccc1)C2` here?
Answer: inconclusive: 100 µM [inhibitor, single point]

Question: For `CC1=C[C@@H](CNC(=O)CCC(=O)O)[C@H](C(C)C)C[C@H]1Cc1nc2c(C)cccc2[nH]1`, which Potency is on record?
Answer: inconclusive: 126 µM [inhibitor, single point]

Question: With `CC(C)c1noc(-c2cn(C3CCN(C(=O)c4ccc(Cl)s4)C3)nn2)n1` (stereo unspecified) as the compound, how does the Potency read?
Answer: inconclusive: 14.1 µM [inhibitor, full curve]

Question: Which Potency does the source give for `O=C(Nc1cccc(C(F)(F)F)c1)c1cnc2c(c1)N(Cc1ccccc1)CCC2` here?
Answer: active: 63.1 µM

Question: With `O=C(Nc1ccc2c(c1)OCCO2)C1CN(S(=O)(=O)C2CC2)CC12CCCCC2` (stereo unspecified) as the compound, how does the Potency read?
Answer: inconclusive: 50.1 µM [inhibitor, partial curve, poor fit]

Question: With `CCOc1ccccc1C1NC(=O)N(CC(=O)NC(C)(C)C)C2=C1C(=O)OC2` (stereo unspecified) as the compound, how does the “activity change, negative = cytotoxicity” value read?
Answer: inactive: 2.58%

Question: For `O=C(c1ccc(F)cc1)N1CCC(Cc2nc(C3CCOCC3)no2)CC1`, which Potency is on record?
Answer: inconclusive: 28.2 µM [inhibitor, partial curve]

Question: Which Potency does the source give for `O=C(NCCN1CCOCC1)c1ccc(-c2ccc(N3CCSCC3)nc2)cc1` here?
Answer: inconclusive: 50.1 µM [inhibitor, partial curve, poor fit]

Question: With `COc1ccc(-c2[nH]nc3ncc(-c4cn[nH]c4)nc23)c(C)c1` as the compound, how does the Potency read?
Answer: inconclusive: 22.4 µM [inhibitor, full curve]

Question: For `COc1ccc(F)cc1-c1ccc(CN2CCC(NC(=O)Nc3ccc(Cl)cc3)C2)cc1` (stereo unspecified), which Potency is on record?
Answer: active: 12.6 µM

Question: For `COc1ccc(CN(C)C2CCc3ccccc32)cc1` (stereo unspecified), which Potency is on record?
Answer: inconclusive: 126 µM [inhibitor, single point]

Question: Which Potency does the source give for `CC(C)N1CCC2(CC1)CN(C(=O)Cc1cccc(F)c1)Cc1ccccc1O2` here?
Answer: inconclusive: 63.1 µM [inhibitor, partial curve, poor fit]
